Measurements as given in PMC9911399, “Two distinct binding modes provide the RNA-binding protein RbFox with extraordinary sequence specificity”.
Substitutions are numbered along the chain they refer to; changes in the protein carry UniProt numbers. The list shows a part of the results.

T1: RBFOX1 RRM RbFoxmut (Fox-RRM*) (Homo sapiens, UniProt Q9NWB1 109-208, R118D;E147R;N151S;E152T)
T1 sequence: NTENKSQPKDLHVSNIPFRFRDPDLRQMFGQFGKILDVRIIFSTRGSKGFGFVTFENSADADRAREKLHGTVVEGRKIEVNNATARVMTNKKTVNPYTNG

B1: UUUAGGU (DNA:RNA)
RNA: GGGAGACCGGAAUUCAGAUUGUCCUUUAGGUUUAAAUCCCGUCGUAGCCACCA
DNA 1: CAATCTGAATTCCGGTCTCCC
DNA 2: TGGTGGCTACGACGGGATT
B2: AUGCGCC (DNA:RNA)
RNA: B1 RNA with U25A, U27G, A28C, G30C, U31C
DNA 1: CAATCTGAATTCCGGTCTCCC
DNA 2: TGGTGGCTACGACGGGATT
B3: AAAUAUC (DNA:RNA)
RNA: GGGAGACCGGAAUUCAGAUUGUCCAAAUAUCUUAAAUCCCGUCGUAGCCACCA
DNA 1: CAATCTGAATTCCGGTCTCCC
DNA 2: TGGTGGCTACGACGGGATT
B4: GGCUGGG (DNA:RNA)
RNA: B1 RNA with U25G, U26G, U27C, A28U, U31G
DNA 1: CAATCTGAATTCCGGTCTCCC
DNA 2: TGGTGGCTACGACGGGATT
B5: GUUGAUC (DNA:RNA)
RNA: B3 RNA with A25G, A26U, A27U, U28G
DNA 1: CAATCTGAATTCCGGTCTCCC
DNA 2: TGGTGGCTACGACGGGATT
B6: AUCGGCA (DNA:RNA)
RNA: B1 RNA with U25A, U27C, A28G, G30C, U31A
DNA 1: CAATCTGAATTCCGGTCTCCC
DNA 2: TGGTGGCTACGACGGGATT
B7: UCAAAAC (DNA:RNA)
RNA: B3 RNA with A25U, A26C, U28A, U30A
DNA 1: CAATCTGAATTCCGGTCTCCC
DNA 2: TGGTGGCTACGACGGGATT
B8: GAAGAUA (DNA:RNA)
RNA: B3 RNA with A25G, U28G, C31A
DNA 1: CAATCTGAATTCCGGTCTCCC
DNA 2: TGGTGGCTACGACGGGATT
B9: UGGCCGG (DNA:RNA)
RNA: B1 RNA with U26G, U27G, A28C, G29C, U31G
DNA 1: CAATCTGAATTCCGGTCTCCC
DNA 2: TGGTGGCTACGACGGGATT
B10: GCACACA (DNA:RNA)
RNA: B3 RNA with A25G, A26C, U28C, U30C, C31A
DNA 1: CAATCTGAATTCCGGTCTCCC
DNA 2: TGGTGGCTACGACGGGATT
B11: CCGACGC (DNA:RNA)
RNA: B1 RNA with U25C, U26C, U27G, G29C, U31C
DNA 1: CAATCTGAATTCCGGTCTCCC
DNA 2: TGGTGGCTACGACGGGATT
B12: CCGCGUA (DNA:RNA)
RNA: B3 RNA with A25C, A26C, A27G, U28C, A29G, C31A
DNA 1: CAATCTGAATTCCGGTCTCCC
DNA 2: TGGTGGCTACGACGGGATT
B13: CCCCGGG (DNA:RNA)
RNA: B1 RNA with U25C, U26C, U27C, A28C, U31G
DNA 1: CAATCTGAATTCCGGTCTCCC
DNA 2: TGGTGGCTACGACGGGATT
B14: AUGGCAC (DNA:RNA)
RNA: B3 RNA with A26U, A27G, U28G, A29C, U30A
DNA 1: CAATCTGAATTCCGGTCTCCC
DNA 2: TGGTGGCTACGACGGGATT
B15: UCCGACA (DNA:RNA)
RNA: B3 RNA with A25U, A26C, A27C, U28G, U30C, C31A
DNA 1: CAATCTGAATTCCGGTCTCCC
DNA 2: TGGTGGCTACGACGGGATT
B16: CUUAAAC (DNA:RNA)
RNA: B1 RNA with U25C, G29A, G30A, U31C
DNA 1: CAATCTGAATTCCGGTCTCCC
DNA 2: TGGTGGCTACGACGGGATT
B17: CCGGCUU (DNA:RNA)
RNA: B3 RNA with A25C, A26C, A27G, U28G, A29C, C31U
DNA 1: CAATCTGAATTCCGGTCTCCC
DNA 2: TGGTGGCTACGACGGGATT
B18: GCCGACU (DNA:RNA)
RNA: B3 RNA with A25G, A26C, A27C, U28G, U30C, C31U
DNA 1: CAATCTGAATTCCGGTCTCCC
DNA 2: TGGTGGCTACGACGGGATT
B19: GUCGCUG (DNA:RNA)
RNA: B3 RNA with A25G, A26U, A27C, U28G, A29C, C31G
DNA 1: CAATCTGAATTCCGGTCTCCC
DNA 2: TGGTGGCTACGACGGGATT
B20: AAUCUAG (DNA:RNA)
RNA: B3 RNA with A27U, U28C, A29U, U30A, C31G
DNA 1: CAATCTGAATTCCGGTCTCCC
DNA 2: TGGTGGCTACGACGGGATT

Target: T1, RBFOX1 RRM RbFoxmut (Fox-RRM*)
Test: EMSA; HiTS-Eq, 1 nM pool, 10 min; buffer printed only for the single-RNA assays: 10 mM Tris pH 7.5, 150 mM NaCl, 3.4 mM EDTA, 0.001% NP-40, 30 C
Conditions: tags: His6 N-terminal (pET28a); label: 5' 32P
Procedure, shortened: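 These values rest on relative association constants, computed from read-count changes of each RNA species versus the control reaction and normalised to the cognate motif. Reads came from free RNA recovered by 8% native PAGE after purified RbFox RRM (wild type or mutant) at increasing concentrations was equilibrated for 10 min in 50 µL with 1 nM of a 5′-radiolabelled pool with 7 randomized nucleotides and DNA-annealed flanks.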

Binder	binding signal
B1	0.108 KA relative to UGCAUGU
B2	0.191 KA relative to UGCAUGU
B3	0.0768 KA relative to UGCAUGU
B4	0.0753 KA relative to UGCAUGU
B5	0.0808 KA relative to UGCAUGU
B6	0.157 KA relative to UGCAUGU
B7	0.0616 KA relative to UGCAUGU
B8	0.119 KA relative to UGCAUGU
B9	0.0899 KA relative to UGCAUGU
B10	0.133 KA relative to UGCAUGU
B11	0.0578 KA relative to UGCAUGU
B12	0.12 KA relative to UGCAUGU
B13	0.0656 KA relative to UGCAUGU
B14	0.132 KA relative to UGCAUGU
B15	0.0756 KA relative to UGCAUGU
B16	0.0994 KA relative to UGCAUGU
B17	0.0778 KA relative to UGCAUGU
B18	0.0806 KA relative to UGCAUGU
B19	0.129 KA relative to UGCAUGU
B20	0.0724 KA relative to UGCAUGU
